Enrichment ratio data for 195 variants are collected here from a collection of fitness landscapes (doi:10.1126/science.1257360).

The list shows a part of the results. Bounds are passed on as bounds.

First the molecules themselves.
B1: PhoQ; a variant is named by its letters at X, in order, P23837 (parent)
chain: MKKLLRLFFPLSLRVRFLLATAAVVLVLSLAYGMVALIGYSVSFDKTTFRLLRGESNLFYTLAKWENNKLHVELPENIDKQSPTMTLIYDENGQLLWAQRDVPWLMKMIQPDWLKSNGFHEIEADVNDTSLLLSGDHSIQQQLQEVREDDDDAEMTHSVAVNVYPATSRMPKLTIVVVDTIPVELKSSYMVWSWFIYVLSANLLLVIPLLWVAAWWSLRPIEALAKEVRELEEHNRELLNPATTRELTSLVRNLNRLLKSERERYDKYRTTLTDLTHSLKTPLXXLQXXLRSLRSEKMSVSDAEPVMLEQISRISQQIGYYLHRASMRGGTLLSRELHPVAPLLDNLTSALNKVYQRKGVNISLDISPEISFVGEQNDFVEVMGNVLDNACKYCLEFVEISARQTDEHLYIVVEDDGPGIPLSKREVIFDRGQRVDTLRPGQGVGLAVAREITEQYEGKIVAGESMLGGARMEVIFGRQHSAPKDE

In the assay the parent is B1. Kind of assay: enrichment ratio after two sorts for PhoP signalling (ratio (wild type AVST 3.29)); higher = more functional. The conditions noted are these: with PhoP (E. coli).
SREC: the enrichment ratio was at most 0.25. The same measure for GVDW: at most 0.25; for AYCH: 0.342.

With GSYQ, the enrichment ratio is at most 0.25. Take NHSL: the enrichment ratio is at most 0.25. MYNC: the enrichment ratio was at most 0.25. FFRS: the enrichment ratio was at most 0.25. As to QPNN, the enrichment ratio was at most 0.25. Under KKNF stands at most 0.25; under GIYR, at most 0.25; under YDRM, at most 0.25.

Take RFEV: the enrichment ratio was at most 0.25. On to KMCC, for which the enrichment ratio was at most 0.25. The same measure for QHNF: 3.83; for YNDG: at most 0.25. As to KAPD, the enrichment ratio was at most 0.25. Under CLFS stands at most 0.25.

Take WEGS: the enrichment ratio is at most 0.25.

As to GDCC, the enrichment ratio was at most 0.25.

Consider FGWY, for which the enrichment ratio is at most 0.25. Under LGVF stands at most 0.25; under GLSN, at most 0.25; under YACP, at most 0.25. On to LGYS, for which the enrichment ratio was at most 0.25. The same measure for HIFF: at most 0.25; for TWRC: at most 0.25; for NSHH: at most 0.25. For GTDK, the enrichment ratio is at most 0.25. The same measure for WNWN: at most 0.25.

For PLWR, the enrichment ratio was at most 0.25. In the case of LYVI, the enrichment ratio was at most 0.25. Regarding FKVV, the enrichment ratio is at most 0.25. The same measure for SLNF: 1.82; for VNEP: at most 0.25. Take QLGY: the enrichment ratio was at most 0.25. Under VMLM stands at most 0.25.

As for FEGL, the enrichment ratio was at most 0.25. Under MQFE stands at most 0.25; under GSTG, at most 0.25. The same measure for PPKF: at most 0.25; for GEMC: at most 0.25.

As to EQNP, the enrichment ratio was at most 0.25. Under WNKM stands at most 0.25; under QRTH, at most 0.25; under KSKY, at most 0.25.

Consider SYEK, for which the enrichment ratio was at most 0.25. Under RVDL stands at most 0.25; under PWCR, at most 0.25; under QMWS, at most 0.25. Regarding NSGQ, the enrichment ratio was at most 0.25. Under KGWY stands at most 0.25; under YRIK, at most 0.25; under HMGI, at most 0.25. In the case of WLWP, the enrichment ratio is at most 0.25. On to YARQ, for which the enrichment ratio was at most 0.25. Under SCQI stands 1.62; under QYLD, at most 0.25; under QGMK, at most 0.25. Under GITR stands 0.626; under AKQL, at most 0.25; under TRVY, 1.64. Regarding TIHF, the enrichment ratio was at most 0.25.

As for QYHA, the enrichment ratio was at most 0.25. The same measure for DAGN: at most 0.25; for AVCW: at most 0.25. As for PFQN, the enrichment ratio is at most 0.25.

Take DEPS: the enrichment ratio is at most 0.25. Under KQEV stands at most 0.25; under VRHN, at most 0.25; under EHIW, at most 0.25.

HTMW: the enrichment ratio was at most 0.25. For YYLK, the enrichment ratio was at most 0.25. In the case of HMWA, the enrichment ratio was at most 0.25. The same measure for MSYV: 6.21. On to GHQN, for which the enrichment ratio was at most 0.25. The same measure for DPSG: at most 0.25; for EMHR: at most 0.25; for PDSC: at most 0.25. As for FWNQ, the enrichment ratio is at most 0.25.

In the case of SVYR, the enrichment ratio was at most 0.25. The same measure for QTSG: 6.17; for KAGW: at most 0.25; for GMVC: at most 0.25. Under WKNH stands at most 0.25. Under RYAF stands at most 0.25. For NTRG, the enrichment ratio was at most 0.25. Under ANLE stands at most 0.25. The same measure for VRPR: at most 0.25. Under KHPN stands at most 0.25; under ELHV, at most 0.25. For REPL, the enrichment ratio is at most 0.25. As for YIKR, the enrichment ratio is at most 0.25.

As to DPQA, the enrichment ratio is at most 0.25.

As for PYHM, the enrichment ratio is at most 0.25. The same measure for FDCV: at most 0.25; for HQWK: at most 0.25. As to DKTY, the enrichment ratio was at most 0.25. The same measure for HIPN: at most 0.25.

As to YGWQ, the enrichment ratio is at most 0.25. Under WLVR stands at most 0.25; under MAEH, at most 0.25; under AIWF, at most 0.25. The same measure for RRSA: at most 0.25. Under VHRD stands at most 0.25; under SWMK, at most 0.25. In the case of IRRI, the enrichment ratio is at most 0.25. As for TYMT, the enrichment ratio was at most 0.25. Under ICIH stands at most 0.25. The same measure for YKEC: at most 0.25. Under NVFK stands at most 0.25. As to QGTA, the enrichment ratio was at most 0.25. For KNLI, the enrichment ratio was at most 0.25. The same measure for DPFG: 0.261; for NRAL: at most 0.25. In the case of DLGT, the enrichment ratio is at most 0.25.

In the case of IWVH, the enrichment ratio was at most 0.25.

SPHV: the enrichment ratio is at most 0.25.

Take SNHN: the enrichment ratio was at most 0.25. The same measure for PLCV: at most 0.25; for FHLQ: at most 0.25; for QRAN: at most 0.25.

YGCI: the enrichment ratio stood at 5.12. As for KFPR, the enrichment ratio was at most 0.25. Under SYII stands at most 0.25. The same measure for LDMH: at most 0.25; for ICQV: at most 0.25; for SYQM: at most 0.25.

On to YDGA, for which the enrichment ratio is at most 0.25. As for IEYY, the enrichment ratio is at most 0.25.

INMV: the enrichment ratio came to 24.2. The same measure for WHTQ: at most 0.25. For the variant QGAK, the enrichment ratio was at most 0.25.

With ESIV, the enrichment ratio is at most 0.25. On to NPDY, for which the enrichment ratio is at most 0.25. The same measure for TFFP: at most 0.25. Regarding HSLG, the enrichment ratio stood at 3.08.

Turning to YGAW, the enrichment ratio was at most 0.25. The same measure for RNYW: at most 0.25; for WYCK: at most 0.25; for IYCQ: at most 0.25. On to LCRQ, for which the enrichment ratio is at most 0.25.

With TQYS, the enrichment ratio is 12.5.

Take MDTC: the enrichment ratio was at most 0.25. The same measure for RTCF: at most 0.25. Under KIYN stands at most 0.25; under RMFG, at most 0.25; under WFKD, at most 0.25.

Turning to YFTT, the enrichment ratio is at most 0.25. Take MVHC: the enrichment ratio is at most 0.25. The same measure for VLYA: at most 0.25; for VCSY: at most 0.25. The same measure for RSWR: at most 0.25; for THKE: at most 0.25; for LCFP: at most 0.25.

As to AWVF, the enrichment ratio was at most 0.25. In the case of YYCF, the enrichment ratio was at most 0.25. The same measure for KSSF: at most 0.25; for GTIL: 10.9.

For the variant WRIY, the enrichment ratio is at most 0.25. The same measure for CYAY: at most 0.25; for SCDS: at most 0.25; for MLRW: at most 0.25.

With HMGP, the enrichment ratio was at most 0.25. Under AYFS stands at most 0.25; under IACF, at most 0.25. LSQN: the enrichment ratio was at most 0.25. Regarding GETI, the enrichment ratio is 11.6.

In the case of VGSR, the enrichment ratio was at most 0.25. As for QHKY, the enrichment ratio is at most 0.25. Under MVCD stands at most 0.25. Under ANKS stands at most 0.25.

Take PEDQ: the enrichment ratio was at most 0.25.

Take TGTV: the enrichment ratio was determined as 10.2. Under RDEN stands at most 0.25; under RPIF, at most 0.25. Under MQMA stands at most 0.25; under ERIM, at most 0.25.

Regarding TWKG, the enrichment ratio is at most 0.25. Turning to GMWF, the enrichment ratio is at most 0.25. Turning to TMGE, the enrichment ratio was determined as 14.8. The same measure for GHSQ: at most 0.25; for NAPQ: at most 0.25. Under ANCL stands 21.8; under MLAW, at most 0.25.

As to IESY, the enrichment ratio was at most 0.25. Under YYNY stands 0.699. The same measure for SYTW: at most 0.25; for NQMI: at most 0.25. With NSDV, the enrichment ratio was at most 0.25. As to TEGE, the enrichment ratio amounted to 0.253.

With STSM, the enrichment ratio worked out at 16.4. Regarding TVRA, the enrichment ratio was at most 0.25. Under EKAL stands at most 0.25.

TSYK: the enrichment ratio was at most 0.25. The same measure for DIVP: at most 0.25.
